Experimental findings from the supplement of paper PMC7726561 are described below.

Whole data set: some 1,400 sequences, median “thermal melting temperature (Tm) of peptide-HLA complex” near 60, cut for the lowest 2% near 45. Some of the results follow.
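Note: cell lysates heated 10 min at 37–73 °C, remaining pHLA pulled down with pan-class I antibody, peptides quantified by DIA-MS versus 37 °C, Tm where half the complex is lost.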

This experiment concerns the target HLA-B*07:02. As to the kind of experiment: thermal melting temperature (Tm) of peptide-HLA complex; higher = more thermostable pHLA complex. To be noted: C1R-B*07:02.
Turning to GPRALTEEL, the thermal melting temperature was 60.9 °C.

SPRSSTVHIL displayed a thermal melting temperature of 56.8 °C.

Turning to RPYAPINANAI, the thermal melting temperature stood at 59.2 °C.

Take IPIALSGRDIL: the thermal melting temperature stood at 57.8 °C.

With HPELTPLL, the thermal melting temperature is 59.7 °C.

SPGPRPVL displayed a thermal melting temperature of 59.6 °C.

In turn, YPHQVPLVL had a thermal melting temperature of 64.4 °C.

In the case of SPLVSRLTLY, the thermal melting temperature came to 41.1 °C.

APRPLPQLL gave a thermal melting temperature of 62.5 °C.

On to RPTDVAISF, for which the thermal melting temperature was 58.3 °C.

RPWSNSRGL returned a thermal melting temperature of 50.6 °C.

For YPRTLDVVL, the thermal melting temperature came to 60.1 °C.

RPFFPLTATL returned a thermal melting temperature of 49.6 °C.

As to SPFFRALL, the thermal melting temperature turned out to be 62.6 °C.

Turning to IPDVKGAVL, the thermal melting temperature came out at 58.7 °C.

IPQPPILQL gave a thermal melting temperature of 60.1 °C.

Regarding IPIGGGTSV, the thermal melting temperature came out at 41.6 °C.

On to HPYRAFPVL, for which the thermal melting temperature was 51.6 °C.

In the case of APRPPQDLIGL, the thermal melting temperature is 62.2 °C.

As for RPGPVLPAV, the thermal melting temperature is 60.1 °C.

As to FPIEVRHYL, the thermal melting temperature is 59.6 °C.

Turning to APRAPPGPAGL, the thermal melting temperature is 58.2 °C.

On to APALRPLVI, for which the thermal melting temperature stood at 60.1 °C.

Turning to RPGLTTVL, the thermal melting temperature was 59.3 °C.

Consider APFLRNVEL, for which the thermal melting temperature was 64.3 °C.

RPSLPLPHF returned a thermal melting temperature of 62.4 °C.

Consider APGPGRKEL, for which the thermal melting temperature turned out to be 63.2 °C.

YPRGGSSEIAF had a thermal melting temperature of 56.1 °C.

On to APRLPITGL, for which the thermal melting temperature came out at 63.6 °C.

Turning to RPAANPIQF, the thermal melting temperature was determined as 60.6 °C.

Consider KPDSDRFVFL, for which the thermal melting temperature came to 54.2 °C.

RPAEVGGMQL came in with a thermal melting temperature of 59.1 °C.

With APSPASFQRSL, the thermal melting temperature was determined as 59.9 °C.

The sequence NVKKVSLEL displayed a thermal melting temperature of 44.3 °C.

Regarding YPKRPLLGL, the thermal melting temperature came to 61.3 °C.

Consider KPSLPFTSL, for which the thermal melting temperature was found to be 62.5 °C.

Turning to SPRSGYFAL, the thermal melting temperature was 61.8 °C.

Turning to SPDLGKNLQTL, the thermal melting temperature was found to be 60.1 °C.

TPRVPDNSLL showed a thermal melting temperature of 55.2 °C.

As to APRGTGIVSA, the thermal melting temperature stood at 57.4 °C.

NPNGRFVVV: the thermal melting temperature was 61.6 °C.

TPINKPPVL: the thermal melting temperature came out at 56 °C.

In the case of SPRAPVSPLKF, the thermal melting temperature was determined as 59.5 °C.

SPAEPSVYATL came in with a thermal melting temperature of 62.8 °C.

Consider RPRAPIIAV, for which the thermal melting temperature came to 61.4 °C.

For LPQLTGPVL, the thermal melting temperature turned out to be 63.1 °C.

As to SPRLLGAAAL, the thermal melting temperature stood at 59.8 °C.

For the sequence EPRTVVSGL, the thermal melting temperature came out at 49.4 °C.

TPQGFRSTL showed a thermal melting temperature of 60 °C.

In turn, NPRPTAQDL gave a thermal melting temperature of 54.5 °C.

Sequence RPAGLSPTL showed a thermal melting temperature of 59.6 °C.

As for TPARKEISL, the thermal melting temperature worked out at 57.1 °C.

Regarding APRPGALL, the thermal melting temperature came to 60.8 °C.

SPQPRLIYL: the thermal melting temperature came to 62.7 °C.

For SPVDPGARQAL, the thermal melting temperature was determined as 56.7 °C.

As for RPKVPVLQL, the thermal melting temperature amounted to 61.6 °C.
